# According to PMC7819943, “Rice protein-binding microarrays: a tool to detect cis-acting elements near promoter regions in rice”:
# The list shows a part of the results.
# Biological target: T1, OsWOX13 (Oryza sativa, UniProt Q5QMM3 1-267)
# T1 sequence: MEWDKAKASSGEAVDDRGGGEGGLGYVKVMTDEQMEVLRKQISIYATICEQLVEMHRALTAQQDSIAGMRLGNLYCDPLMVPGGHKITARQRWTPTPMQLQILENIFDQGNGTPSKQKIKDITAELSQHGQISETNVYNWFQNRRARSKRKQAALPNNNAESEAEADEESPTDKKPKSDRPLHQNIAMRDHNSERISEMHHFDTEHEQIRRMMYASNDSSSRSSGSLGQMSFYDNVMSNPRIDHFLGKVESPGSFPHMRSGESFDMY
# Assay: protein-binding microarray (RPBM); PBS, 2% BSA, 51.3 ng/ul salmon testes DNA, 50 uM zinc acetate, 200 nM TF, 25 C, 1 h; high values mean tight binding
# Settings: protein: recombinant; tags: N-terminal polyhistidine and DsRed monomer fusion (pET32a); label: CyDye5-dUTP incorporated in the synthesized complementary strand; 3' TTTTT single-stranded linker to array surface; dsDNA, one strand shown
# Outline: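 Binding signal is reported as fluorescence intensity per feature (arbitrary units) from an Axon 4000B scanner. Incubation used 200 nM of each Ni–NTA-purified, N-terminally polyhistidine- and DsRed-fused transcription factor from E. coli BL21-CodonPlus on a double-stranded custom Agilent array for 1 h at 25 °C, with 50 µM zinc acetate in the buffer, followed by washing.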
row,Sequence,binding signal
1,AACTAAAAGTTAATTATTCCAATTCCCGCTCACCCACCTACGGAGTCACCTAGTGCAG,5770 fluorescence intensity (a.u.)
2,GGCTCTTTGATTCAAATGATTGAAGCTTTTCAAATCCTATCGGAGTCACCTAGTGCAG,28300 fluorescence intensity (a.u.)
3,TCAAGATAATCAACGGTCCAAACAGTGCTACAGGAACACACGGAGTCACCTAGTGCAG,4230 fluorescence intensity (a.u.)
4,GGGGACCAAGATTATGATTGTGTACAAAATTCGTGCTGACCGGAGTCACCTAGTGCAG,4020 fluorescence intensity (a.u.)
5,ATGAGTGATTGATTTCTTGTTTATAGGAGTGGGTTGTTCACGGAGTCACCTAGTGCAG,42500 fluorescence intensity (a.u.)
6,GTATACTCTGTAATTACAAGCAGTAGATGGTAGGTGTATGCGGAGTCACCTAGTGCAG,4450 fluorescence intensity (a.u.)
7,ATAAAATTTTATGATATATAGATAATAATTTTACTTGCAACGGAGTCACCTAGTGCAG,5640 fluorescence intensity (a.u.)
8,TTTGGATCGAACAGTGATTGGATCATGAGCTATGACCCTTCGGAGTCACCTAGTGCAG,22800 fluorescence intensity (a.u.)
9,GCATTAATTTGGAGTGCACAATACTGGATTGAAATAAAGACGGAGTCACCTAGTGCAG,5980 fluorescence intensity (a.u.)
10,ATAAACCTTAACTGCAATCTGTTTTACATATTACAGTAGTCGGAGTCACCTAGTGCAG,8680 fluorescence intensity (a.u.)
11,CTCACTCCTAATTACTAAATATTCCACCTCAGCAATCTTCCGGAGTCACCTAGTGCAG,6450 fluorescence intensity (a.u.)
12,ATTTTCAATCAATATGAACAATTTTACTAAATCTGACTTTCGGAGTCACCTAGTGCAG,19000 fluorescence intensity (a.u.)
13,ATCTATAATTAGAGAGAACGCAACTGAACCGAAAATCGTACGGAGTCACCTAGTGCAG,6660 fluorescence intensity (a.u.)
14,ATAAAATTAAATCAACTTTAAACTTGCATTAACTGACGAACGGAGTCACCTAGTGCAG,15300 fluorescence intensity (a.u.)
15,AAAAGTTTGAATTAGAATAATTGATATGACAAAACGTACTCGGAGTCACCTAGTGCAG,9920 fluorescence intensity (a.u.)
16,GAAACTAACTTTGGTGATGATTTACGCACATGAGACAAAGCGGAGTCACCTAGTGCAG,7500 fluorescence intensity (a.u.)
17,GCTATTATTCTTTAATGACTGCCATTTCAGAATCTATGCACGGAGTCACCTAGTGCAG,3970 fluorescence intensity (a.u.)
18,AGTAATTATTTATTCTTTTCATATCATTTGATTCATTGTTCGGAGTCACCTAGTGCAG,17900 fluorescence intensity (a.u.)
19,GGTTATTTGATTGATTTGGGCCGGCTGTCCACGAAAATCACGGAGTCACCTAGTGCAG,36700 fluorescence intensity (a.u.)
20,CACAGATACCCATGATTGCACTTATTTTGTGACGGGTGTACGGAGTCACCTAGTGCAG,7850 fluorescence intensity (a.u.)
21,AACTATGGTATAATTGAAGTGTAATTATATTGTAATTGCACGGAGTCACCTAGTGCAG,20800 fluorescence intensity (a.u.)

row,Sequence,binding signal
1,TTGCTAAATTTAGTCAATACATAAGAAATTCTGTCAAAATCGGAGTCACCTAGTGCAG,4800 fluorescence intensity (a.u.)
2,GATATTTTGTTTATTTGTGTTCCTTCTTAAGTCCTTTATTCGGAGTCACCTAGTGCAG,3410 fluorescence intensity (a.u.)
3,CAGATATAAATTGAGCGACTTCCAGAGTGATCAGCACTACCGGAGTCACCTAGTGCAG,7440 fluorescence intensity (a.u.)
4,ACCAATTATAAACACAAGTTAATGGGCAAATGACATGGAACGGAGTCACCTAGTGCAG,11500 fluorescence intensity (a.u.)
5,CTATGATTATGGCTTTGTACCTGTCACGCTGACATCACTCCGGAGTCACCTAGTGCAG,37300 fluorescence intensity (a.u.)
6,CCTGATGAACAGTATAGGTGGTAAGATAAAATTTGAGCTCCGGAGTCACCTAGTGCAG,3420 fluorescence intensity (a.u.)
7,TAATTGATTAATTAATAATACTCCAGCTGCAGCAACGGCACGGAGTCACCTAGTGCAG,47300 fluorescence intensity (a.u.)
8,CGGAAATAATTTTGGACATCATATCATTTGCCGGCAATTACGGAGTCACCTAGTGCAG,3450 fluorescence intensity (a.u.)
9,TTCCACCAAATTACCAAATCATTAGCACAGGCCAGCTCGACGGAGTCACCTAGTGCAG,12100 fluorescence intensity (a.u.)
10,CATCAATAATAGAAATTCAATCGTTTACCCTTCAGTTTATCGGAGTCACCTAGTGCAG,7050 fluorescence intensity (a.u.)
11,TTTTATGAGAGATTTGATAATTTATCACTTATTTAAGTGGCGGAGTCACCTAGTGCAG,3480 fluorescence intensity (a.u.)
12,AAAATGATTTTCTTTTCAAGAGGTTGAAGCTCATGTTAGACGGAGTCACCTAGTGCAG,6720 fluorescence intensity (a.u.)
13,ACTGCAGTAACAGACAGATACATGGATCGATGCACTTGATCGGAGTCACCTAGTGCAG,3620 fluorescence intensity (a.u.)
14,AGTAGATTAATGGTGGAAGAAATTAAGGAGGCTATGACACCGGAGTCACCTAGTGCAG,7500 fluorescence intensity (a.u.)
15,AATGATTGAAATCGGGGCGCAAATTATTGCGATTATTATTCGGAGTCACCTAGTGCAG,49400 fluorescence intensity (a.u.)
16,TTTGTCCTAATTAAGTGCTACGGTTACTTCGCATCTAGTTCGGAGTCACCTAGTGCAG,5410 fluorescence intensity (a.u.)
17,CTAATTATTTAGTCTCTTTATATTTATAAAATGCACATACCGGAGTCACCTAGTGCAG,3450 fluorescence intensity (a.u.)
18,ACTGCTCGATTAATTGGTACTGATACTGTCCGCTCCATGACGGAGTCACCTAGTGCAG,20700 fluorescence intensity (a.u.)
19,GATAACATATTCCTAACAGATGGAGCAAGCCCAGCAGTATCGGAGTCACCTAGTGCAG,4270 fluorescence intensity (a.u.)
20,TGAACTAAACAGTGCCTAATTTATCGGACTAATCGGCCGTCGGAGTCACCTAGTGCAG,4480 fluorescence intensity (a.u.)
21,ATTATACTTATATTAATTTAGATGAATGGGCAAATAGCATCGGAGTCACCTAGTGCAG,5080 fluorescence intensity (a.u.)
